Counter-ions that a name gives are not always drawn. The list shows a part of the results. Rule as the data show it: active = -2 or less and inactive = the rest. Repeats are few or missing, and single values can be far off.
Tested on: hPSC-derived cortical neurons (WA09)
Experiment: nuclei number (viability) z-score; higher = more surviving cells
Conditions: 5 µM; treatment: days 7-14 after plating, readout day 21
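Also: nuclei counted from DAPI counterstain by automated high-content image analysis, four fields per well at ×20 in 384-well plates, with sequential b-score then z-score normalization.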

How did the “nuclei number (z-score)” value turn out when `C[C@@H]1C[C@H]2[C@@H]3CCC4=CC(=O)C=C[C@]4(C)[C@@]3(F)[C@@H](O)C[C@]2(C)[C@@]1(O)C(=O)COP(=O)(O)O` [Dexamethasone Sodium Phosphate] was run?
The value was inactive: -0.461.

How did the “nuclei number (z-score)” value turn out when `Cc1cccc(CC(=O)N2CCc3c2ccc(-c2cn(C)c4ncnc(N)c24)c3F)n1` was run?
Its value is inactive: -0.0309.

With `COc1ccc(-n2c(SCCCN3C(=O)c4cccc5cccc(c45)C3=O)nnc2-c2ccncc2)cc1` as the compound, how does the “nuclei number (z-score)” value read?
The value was inactive: -0.112.

`Cc1c(-c2cnccn2)ssc1=S` [Oltipraz] was tested. Which “nuclei number (z-score)” value did it give?
The value was inactive: 0.156.

Which “nuclei number (z-score)” value does the source give for `N#Cc1cc2cc(CN3CCC(Nc4ncnc5sc(CC(F)(F)F)cc45)CC3)ccc2[nH]1` here?
Its value is active: -2.12.

With `Cc1ccc(=O)n(-c2ccccc2)c1` [Pirfenidone] as the compound, how does the “nuclei number (z-score)” value read?
The value was inactive: -0.453.

With `Nc1c2ccccc2nc2ccccc12` [9-Aminoacridine] as the compound, how does the “nuclei number (z-score)” value read?
Its value is inactive: -0.521.

`CCN1CCN(Cc2ccc(C(=O)Nc3ccc(C)c(Oc4ccc5c(c4)CC(=O)N5)c3)cc2C(F)(F)F)CC1` was tested. Which “nuclei number (z-score)” value did it give?
Its value is inactive: -0.311.

With `N[C@@H](Cc1cc(I)c(Oc2ccc(O)c(I)c2)c(I)c1)C(=O)O` [Liothyronine Sodium] as the compound, how does the “nuclei number (z-score)” value read?
The value was inactive: 0.00511.

`COc1ccc(C2CC(=O)c3c(O)cc(OC4OC(COC5OC(C)C(O)C(O)C5O)C(O)C(O)C4O)cc3O2)cc1OC` (stereo unspecified) [Methyl-Hesperidin] was tested. Which “nuclei number (z-score)” value did it give?
The value was inactive: -0.506.

Which “nuclei number (z-score)” value does the source give for `CN(C)C(=O)[C@H](O)[C@H](Cc1ccccc1)NC(=O)c1cc2cc(Cl)ccc2[nH]1` here?
Its value is inactive: 2.04.

For `O=C(Oc1cc(S(=O)(=O)c2ccccc2)ccc1[N+](=O)[O-])c1ccc(Cl)cc1`, which “nuclei number (z-score)” value is on record?
The value was inactive: 5.03.

How did the “nuclei number (z-score)” value turn out when `Cc1cc(CN2CCN(c3c(Br)cnc4nc(-c5ccc(N6CCN(C)CC6)cc5)[nH]c34)CC2)no1` was run?
Its value is active: -5.86.

For `CC(C)(O)CNc1ncc(-c2ccnc(Nc3ccnc(Cl)c3)n2)c(CC2CC2)n1`, which “nuclei number (z-score)” value is on record?
Its value is active: -4.83.

`CNc1nc(Nc2cn(C(C)(C)C#N)nc2C)ncc1C(F)(F)F` was tested. Which “nuclei number (z-score)” value did it give?
Its value is inactive: -0.466.

With `C=CC(=O)N1C/C(=C\c2ccc([N+](=O)[O-])cc2)C(=O)/C(=C/c2ccc([N+](=O)[O-])cc2)C1` as the compound, how does the “nuclei number (z-score)” value read?
Its value is inactive: -1.35.

Which “nuclei number (z-score)” value does the source give for `COC(=O)C1=C(C#N)NC(C)=C(C(=O)OC(C)C)C1c1cccc([N+](=O)[O-])c1` (stereo unspecified) [Nilvadipine] here?
Its value is inactive: 0.67.

Which “nuclei number (z-score)” value does the source give for `COCCCN1CCC(NC(=O)c2cc(Cl)c(N)c3c2OCC3)CC1` [Prucalopride Succinat] here?
Its value is inactive: 3.71.

For `COCCCN1CCC(NC(=O)c2cc(Cl)c(N)c3c2OCC3)CC1` [Prucalopride], which “nuclei number (z-score)” value is on record?
The value was inactive: -0.877.

How did the “nuclei number (z-score)” value turn out when `O=C(CCCN1CCN(c2ccccn2)CC1)c1ccc(F)cc1` [Azaperone] was run?
Its value is inactive: 0.296.

For `CCCCCCNC(=O)Nc1ccc(S(=O)(=O)Nc2ccc(CCNC[C@H](O)COc3ccc(O)cc3)cc2)cc1`, which “nuclei number (z-score)” value is on record?
Its value is inactive: -1.12.

`O=C(Nc1ccncc1)c1cc([N+](=O)[O-])ccc1Cl` was tested. Which “nuclei number (z-score)” value did it give?
The value was inactive: 1.65.

How did the “nuclei number (z-score)” value turn out when `C[C@@H](O)[C@@H]1NC(=O)[C@H](CCCCN)NC(=O)[C@@H](Cc2c[nH]c3ccccc23)NC(=O)[C@H](Cc2ccccc2)NC(=O)[C@@H](NC(=O)[C@H](N)Cc2ccccc2)CSSC[C@@H](C(=O)N[C@H](CO)[C@@H](C)O)NC1=O` [Octreotide Acetate] was run?
The value was inactive: -0.878.

For `c1ccc(CNc2ncnc3[nH]cnc23)cc1` [6-Benzylaminopurine], which “nuclei number (z-score)” value is on record?
The value was inactive: 3.86.

`C[C@H](CCC(=O)O)[C@H]1CC[C@H]2[C@@H]3[C@@H](O)C[C@@H]4C[C@H](O)CC[C@]4(C)[C@H]3CC[C@]12C` [Ursodiol] was tested. Which “nuclei number (z-score)” value did it give?
The value was inactive: 0.544.

Which “nuclei number (z-score)” value does the source give for `COc1cc2/c(=N/c3ccc(Br)cc3F)nc[nH]c2cc1OCC1CCN(C)CC1` [Vandetanib (ZD6474)] here?
The value was inactive: 1.01.

How did the “nuclei number (z-score)” value turn out when `C=C[C@@]1(C)CC(=O)[C@]2(O)[C@@]3(C)[C@@H](O)CCC(C)(C)[C@@H]3[C@H](O)[C@H](OC(C)=O)[C@@]2(C)O1` [Forskolin] was run?
Its value is inactive: 0.339.

How did the “nuclei number (z-score)” value turn out when `O=C(CCCCCN1C(=O)c2cccc3cccc(c23)C1=O)NO` [Scriptaid] was run?
The value was active: -4.08.

For `Cc1cc(OCCCS(C)(=O)=O)cc(C)c1-c1cccc(COc2ccc3c(c2)OC[C@H]3CC(=O)O)c1`, which “nuclei number (z-score)” value is on record?
Its value is inactive: 1.53.

Which “nuclei number (z-score)” value does the source give for `CCN(CC)C(=S)SSC(=S)N(CC)CC` [Disulfiram] here?
The value was inactive: -1.11.

For `O=c1cc(-c2ccccc2)oc2cc(O)cc(O)c12` [Chrysin], which “nuclei number (z-score)” value is on record?
Its value is inactive: -0.404.

How did the “nuclei number (z-score)” value turn out when `O=c1sn(-c2cccc3ccccc23)c(=O)n1Cc1ccccc1` [Tideglusib] was run?
Its value is inactive: 0.238.

Which “nuclei number (z-score)” value does the source give for `Nc1c2c(nc3ccccc13)CCCC2` [Tacrine HCl] here?
Its value is inactive: -0.501.

For `COc1ccc(S(=O)(=O)Nc2cccnc2Nc2ccc(O)cc2)cc1`, which “nuclei number (z-score)” value is on record?
Its value is active: -4.47.

Which “nuclei number (z-score)” value does the source give for `Cc1ccc(NC(=O)c2cccc(N(C)C)c2)cc1NC(=O)c1ccc(O)cc1` here?
The value was inactive: 1.35.

How did the “nuclei number (z-score)” value turn out when `O=C1NCCc2[nH]c(-c3ccncc3)cc21` was run?
Its value is active: -3.19.

For `COC(=O)C1=C(C)NC(C)=C(C(=O)OC2CCCN(Cc3ccccc3)C2)C1c1cccc([N+](=O)[O-])c1` (stereo unspecified) [Benidipine HCl], which “nuclei number (z-score)” value is on record?
The value was active: -3.36.

For `CCNC(=O)CCC/C=C\C[C@@H]1[C@@H](/C=C/[C@@H](O)CCc2ccccc2)[C@H](O)C[C@@H]1O` [Bimatoprost], which “nuclei number (z-score)” value is on record?
Its value is inactive: -0.35.

Which “nuclei number (z-score)” value does the source give for `O=C(CCCCCCC(=O)Nc1ccccc1)NO` [Vorinostat (SAHA_ MK0683)] here?
The value was active: -4.33.

Which “nuclei number (z-score)” value does the source give for `C[C@H](Oc1ccc(S(C)(=O)=O)cc1C(=O)N1CCN(c2ncc(C(F)(F)F)cc2F)CC1)C(F)(F)F` [Bitopertin] here?
Its value is inactive: 2.9.

Which “nuclei number (z-score)” value does the source give for `NC[C@H]1O[C@H](O[C@H]2[C@H](O)[C@@H](O[C@H]3O[C@H](CO)[C@@H](O)[C@H](N)[C@H]3O)[C@H](N)C[C@@H]2N)[C@H](O)[C@@H](O)[C@@H]1O` [Kanamycin sulfate] here?
The value was inactive: 0.305.

`CC[C@H]1OC(=O)C[C@@H](O)[C@H](C)[C@@H](O[C@@H]2O[C@H](C)[C@@H](O[C@H]3C[C@@](C)(O)[C@@H](O)[C@H](C)O3)[C@H](N(C)C)[C@H]2O)[C@@H](CC=O)C[C@@H](C)C(=O)/C=C/C(C)=C/[C@@H]1CO[C@@H]1O[C@H](C)[C@@H](O)[C@@H](OC)[C@H]1OC` [Tylosin tartrate] was tested. Which “nuclei number (z-score)” value did it give?
Its value is inactive: -0.316.

How did the “nuclei number (z-score)” value turn out when `O=C(/C=C/c1ccc(O)c(O)c1)c1ccc(O)cc1O` [Butein] was run?
Its value is inactive: -2.

For `NCCCCCNCC12CC3CC(CC(C3)C1)C2` [IEM 1754 dihydrobroMide], which “nuclei number (z-score)” value is on record?
Its value is inactive: 0.197.

`O=C(O)c1ccc2c(c1)nc(Nc1cccc(Cl)c1)c1ccncc12` [CX-4945 (Silmitasertib)] was tested. Which “nuclei number (z-score)” value did it give?
Its value is inactive: -0.737.

With `CC1(C)O[C@@H]2C[C@H]3[C@@H]4CCC5=CC(=O)C=C[C@]5(C)[C@H]4[C@@H](O)C[C@]3(C)[C@]2(C(=O)CO)O1` [Desonide] as the compound, how does the “nuclei number (z-score)” value read?
Its value is inactive: 6.69.

`CC1(O)CCC(C(C)(C)O)CC1` (stereo unspecified) [Terpin hydrate] was tested. Which “nuclei number (z-score)” value did it give?
Its value is inactive: 0.832.

For `COc1cc(N2CCC(N)CC2)ccc1Nc1ncc(Cl)c(-c2c[nH]c3ccccc23)n1`, which “nuclei number (z-score)” value is on record?
The value was active: -2.86.

For `CCOC(=O)n1ccn(C)c1=S` [Carbimazole], which “nuclei number (z-score)” value is on record?
Its value is inactive: 0.0507.

`O=C1CN(/N=C/c2ccc(-c3ccc([N+](=O)[O-])cc3)o2)C(=O)N1` [Dantrolene sodium hemiheptahydrate] was tested. Which “nuclei number (z-score)” value did it give?
Its value is inactive: -0.486.

For `Nc1[nH]nc2nnc(-c3c(-c4ccccc4)nn4ccccc34)cc12`, which “nuclei number (z-score)” value is on record?
The value was inactive: 0.687.

`Cc1cc(NS(=O)(=O)c2ccc(N)cc2)no1` [Sulfamethoxazole] was tested. Which “nuclei number (z-score)” value did it give?
Its value is inactive: 1.12.

How did the “nuclei number (z-score)” value turn out when `CN[C@@H]1[C@@H](O)[C@@H](O[C@@H]2[C@@H](O)[C@H](O[C@H]3OC(CN)=CC[C@H]3N)[C@@H](N)C[C@H]2N)OC[C@]1(C)O` [Sisomicin sulfate] was run?
The value was inactive: 2.65.

Which “nuclei number (z-score)” value does the source give for `O=C1CN(/N=C/c2ccc([N+](=O)[O-])o2)C(=O)N1` [Nitrofurantoin] here?
The value was inactive: 0.639.

Which “nuclei number (z-score)” value does the source give for `CC(C)N(CCCNC(=O)Nc1ccc(C(C)(C)C)cc1)C[C@H]1O[C@@H](n2cc(Br)c3c(N)ncnc32)[C@H](O)[C@@H]1O` here?
Its value is inactive: -0.439.

Which “nuclei number (z-score)” value does the source give for `CC(C)(C)C(=O)C(Oc1ccc(Cl)cc1)n1ccnc1` (stereo unspecified) [Climbazole] here?
Its value is inactive: -1.04.

For `CC1(C)S[C@@H]2[C@H](NC(=O)C(C(=O)O)c3ccccc3)C(=O)N2[C@H]1C(=O)O` (stereo partly specified) [Carbenicillin disodium], which “nuclei number (z-score)” value is on record?
The value was active: -2.24.

How did the “nuclei number (z-score)” value turn out when `C[C@H](N)[C@H](O)c1cccc(O)c1` [Metaraminol Bitartrate] was run?
The value was inactive: -0.723.

For `Cc1cc(C)c2c(c1)[C@@H](N(Cc1cc(C(F)(F)F)cc(C(F)(F)F)c1)c1nnn(C)n1)CCCN2C[C@H]1CC[C@H](C(=O)O)CC1`, which “nuclei number (z-score)” value is on record?
Its value is inactive: -0.522.

With `CCOC(=O)c1ncn2c1CN(C)C(=O)c1cc(F)ccc1-2` [Flumazenil] as the compound, how does the “nuclei number (z-score)” value read?
Its value is inactive: 0.681.

`CC1=C(C(=O)Nc2cc3cn[nH]c3cc2F)C(c2ccc(C(F)(F)F)cc2)CC(=O)N1` (stereo unspecified) was tested. Which “nuclei number (z-score)” value did it give?
Its value is inactive: -0.54.

How did the “nuclei number (z-score)” value turn out when `CNC(=O)c1ccccc1Nc1nc(Nc2ccc(N3CCOCC3)cc2OC)ncc1Cl` was run?
Its value is active: -2.04.

For `CCCCN(Cc1ccc(C(=O)NO)cc1)C(=O)Nc1ccccc1` [Nexturastat A], which “nuclei number (z-score)” value is on record?
Its value is inactive: -0.196.

How did the “nuclei number (z-score)” value turn out when `COC(=O)N[C@H](C(=O)N1CCC[C@H]1c1ncc(-c2ccc(-c3ccc(-c4cnc([C@@H]5CCCN5C(=O)[C@@H](NC(=O)OC)C(C)C)[nH]4)cc3)cc2)[nH]1)C(C)C` was run?
The value was inactive: -0.0167.

`CC(C(=O)O)c1cccc(C(=O)c2ccccc2)c1` (stereo unspecified) [Ketoprofen] was tested. Which “nuclei number (z-score)” value did it give?
The value was inactive: 0.466.

With `NCCCC[C@@H]1NC(=O)[C@@H](Cc2ccccc2)NC(=O)[C@H](CC(=O)O)NC(=O)CNC(=O)[C@H](CCCN=C(N)N)NC1=O` [Cyclo (-RGDfK)] as the compound, how does the “nuclei number (z-score)” value read?
The value was inactive: 3.69.

Source: the supplement of paper PMC11348887
